Several values for one entry are separate records, joined by “and”; a condition that tells them apart may be missing. Equal values may be shown once.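 A five-concentration, 48-hour dose response in 96-well plates underlies each endpoint, interpolated linearly between surrounding concentrations. GI50: concentration for 50% inhibition of growth. TGI marks complete inhibition of growth.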
Tested on: NCI-H322M lung
Assay: inhibition of tumour cell growth, NCI panel, 48 h

For `COc1ccc(-c2nc(Nc3ccc(-c4nc5ccccc5[nH]4)cc3)nc(N3CCOCC3)n2)cc1`, the GI50 was 3.62 µM and the TGI was over 100 µM.

`COC(=O)NN1C(C)=C(C(=O)OC)C2(C#N)C(C(=O)OC)=C(C)N(NC(=O)OC)C12N` (configuration not stated) gave a TGI of over 100 µM.

Work on `Cc1nc2c(cc1C(=O)N/N=C/c1ccc([N+](=O)[O-])cc1)c(=O)n(C)c(=O)n2C` yielded a TGI of over 100 µM.

Compound `C[C@H](NC(=O)n1c2ccccc2c2ccccc21)C(=O)O` has a TGI of over 100 µM.

Work on `O=S(=O)(c1ccc(Br)cc1)N1CCN(S(=O)(=O)c2ccc(Br)cc2)CC1` yielded a TGI of over 100 µM.

`COc1cccc(CCNc2c(C#N)c3nc4ccccc4n3c3ccccc23)c1` was tested, and the TGI was over 79.1 µM.

`Cc1ccc(Nc2[nH]c(=O)[nH]c(=O)c2C)cc1Cl` showed a TGI of over 100 µM.

`Clc1ccc(CNc2nc(Cl)c3[nH]cnc3n2)cc1Cl` gave a TGI of over 100 µM.

`CC(=O)O[C@H]1C=CC(=O)C(C)CC1C` (some centres not stated) was tested, and the TGI was over 100 µM.

With `CC1(C)OCC(C2OC(OC(=O)c3ccc([N+](=O)[O-])cc3)C3OC(C)(C)OC23)O1` (configuration not stated) the TGI was over 100 µM.

`O=c1c(C2=NCCC2)c(-c2ccc[nH]2)[nH]n1-c1ccccc1` was tested, and the TGI was over 100 µM.

In the case of `O=C1CCCCC=C1C[N+](=O)[O-]`, the GI50 is reported as over 100 µM and the TGI is reported as over 100 µM.

`CCC12CCCNC1c1c(n(C)c3ccccc13)C(C(=O)OC)C2` (configuration not stated) showed a TGI of 239 µM.

`CCCCCCCCCCCCCCCC(=O)N[C@H](/C=C/[C@H](O)CCCCCCCCCCCCC)CO` showed a GI50 of over 100 µM and a TGI of over 100 µM.

With `CC(=O)OC1CC2(C)OC(Cc3ccccc32)O1` (configuration not stated) the TGI was over 100 µM.

Compound `COC1=C(Br)C(O)C2(C=C1Br)CC(C(=O)NCCCCNC(=O)C1=NOC3(C=C(Br)C(OC)=C(Br)C3O)C1)=NO2` (configuration not stated) has a TGI of over 100 µM.

For `CSc1nc2c(nc(N)n2C2OC(COC(C)=O)C(OC(C)=O)C(OC(C)=O)C2OC(C)=O)c(=O)n1C` (configuration not stated), the TGI was over 100 µM.

Work on `CC(Oc1ccc(OCC2CCCCC2)cc1)C(=O)NCCO` (configuration not stated) yielded a TGI of over 100 µM.

With `N#Cc1cc([N+](=O)[O-])ccc1NC(=O)C(F)(F)F` the TGI was over 100 µM.

`COc1ccc2c(Cc3c4ccccc4cc4ccccc34)cncc2c1O` showed a TGI of 58.1 µM.

`O=C(O)CCNC(=O)c1cc(N(CCBr)CCBr)c([N+](=O)[O-])cc1[N+](=O)[O-]` was tested, and the TGI was over 100 µM.

For `COC(C(=O)C(O)C(C)O)C1Cc2cc3cc(OC4CC(OC5CC(O)C(O)C(C)O5)C(O)C(C)O4)c(C)c(O)c3c(O)c2C(=O)C1OC1CC(OC2CC(O)C(OC3CC(C)(O)C(O)C(C)O3)C(C)O2)C(O)C(C)O1` (configuration not stated), the GI50 was 0.0112 µg/mL and 0.000901 µg/mL and the TGI was 0.0616 µg/mL and 0.121 µg/mL.

`C[C@]12CC[C@H]3[C@@H](CCC4=CC(=O)CC[C@@]43C)[C@@H]1CC[C@@H]2C(=O)COS(=O)(=O)c1ccc(Br)cc1` gave a TGI of 34.5 µM.

`CC(=O)c1ccc(Nc2nc(Nc3ccc(F)cc3)nc(Nc3ccc(F)cc3)n2)cc1` showed a GI50 of 17.7 µM and a TGI of over 100 µM.

Work on `CCN1C(=O)/C(=C2\SC(c3ccccc3)(c3ccccc3)c3ccccc32)SC1=S` yielded a TGI of over 100 µM.

`CC(C)OP(=O)(OC(C)C)c1ccc2c(c1)OCCOCCOCCOCCO2` was tested, and the TGI was over 100 µM.

For `c1cnc2c(c1)-n1cccc1C1(CCSC1)NN2` (configuration not stated), the TGI was over 100 µM.

With `N#CCCN(CCC#N)c1ccc(C(N=Nc2ccccc2)=Nc2ccc(Cl)cc2)cc1` the TGI was over 100 µM.

`COc1cccc(-n2cc(-c3nc(Nc4cc(C)[nH]n4)c4ccccc4n3)nn2)c1` was tested, and the GI50 was 2.09 µM and the TGI was 12 µM.

With `S=C(N/N=C/c1ccccn1)Nc1ccc(Cl)cc1` the TGI was over 100 µM.

`N#CC(Nc1cccc(C(F)(F)F)c1)c1ccccc1C(F)(F)F` (configuration not stated) was tested, and the TGI was 15.2 µM.

`NNC1=N/C(=C\c2ccco2)C(=O)N1` was tested, and the TGI was over 100 µM.

`CCCCCc1cc[n+](CC(=O)c2ccc([N+](=O)[O-])cc2)cc1` was tested, and the GI50 was 16.6 µM and the TGI was 63.6 µM.

In the case of `C/C(=N\NC(=S)N1CCN(C2CCCCCC2)CC1)c1ccccn1`, the GI50 is reported as under 0.001 µM and the TGI is reported as 5.76 µM and 2.05 µM.

Work on `CCC(=O)NC(Nc1cccc(F)c1)(C(F)(F)F)C(F)(F)F` yielded a TGI of over 100 µM.

For `COc1cc(OC)c2c(=O)c(OC)c(-c3ccc4c(c3)OCO4)oc2c1OC`, the TGI was over 100 µM.

In the case of `CC1(C)CCCC(C)(C2CCC3(C)C2C(O)CC2C4(C)CCC(O)C(C)(C)C4C(O)CC23C)O1` (configuration not stated), the TGI is reported as 49.8 µM.

`N#CC1(Nc2ccc(-c3ccc(NC4(C#N)CCCC4)cc3)cc2)CCCC1` showed a TGI of over 100 µM.

`O=C(OC[C@H]1C[C@H]2C(=O)CCC[C@H]2O1)c1ccccc1` showed a TGI of over 100 µM.
